# According to PubChem BioAssay AID488969 (Vanderbilt High Throughput Screening Facility, 2010):
# In all, about 110,000 compounds were measured (“z-score”: median about -0.1, highest 2% from about 2 on). The list shows a part of the results.
# Biological target: Metabotropic glutamate receptor 8 (Rattus norvegicus) (UniProt P70579)
# Test: rat mGluR8 modulators via GIRK flux, primary screen, cell-based, thallium flux, HTS (AID 488969)
# Conditions: HEK293 rat mGluR8, GIRK (G protein-gated inwardly rectifying potassium channel) thallium flux, FluoZin2; at 10 µM; stronger effect = higher value; submaximal glutamate (EC20) added with thallium
# Sequence of UniProt P70579 (P70579 whole entry, looked up): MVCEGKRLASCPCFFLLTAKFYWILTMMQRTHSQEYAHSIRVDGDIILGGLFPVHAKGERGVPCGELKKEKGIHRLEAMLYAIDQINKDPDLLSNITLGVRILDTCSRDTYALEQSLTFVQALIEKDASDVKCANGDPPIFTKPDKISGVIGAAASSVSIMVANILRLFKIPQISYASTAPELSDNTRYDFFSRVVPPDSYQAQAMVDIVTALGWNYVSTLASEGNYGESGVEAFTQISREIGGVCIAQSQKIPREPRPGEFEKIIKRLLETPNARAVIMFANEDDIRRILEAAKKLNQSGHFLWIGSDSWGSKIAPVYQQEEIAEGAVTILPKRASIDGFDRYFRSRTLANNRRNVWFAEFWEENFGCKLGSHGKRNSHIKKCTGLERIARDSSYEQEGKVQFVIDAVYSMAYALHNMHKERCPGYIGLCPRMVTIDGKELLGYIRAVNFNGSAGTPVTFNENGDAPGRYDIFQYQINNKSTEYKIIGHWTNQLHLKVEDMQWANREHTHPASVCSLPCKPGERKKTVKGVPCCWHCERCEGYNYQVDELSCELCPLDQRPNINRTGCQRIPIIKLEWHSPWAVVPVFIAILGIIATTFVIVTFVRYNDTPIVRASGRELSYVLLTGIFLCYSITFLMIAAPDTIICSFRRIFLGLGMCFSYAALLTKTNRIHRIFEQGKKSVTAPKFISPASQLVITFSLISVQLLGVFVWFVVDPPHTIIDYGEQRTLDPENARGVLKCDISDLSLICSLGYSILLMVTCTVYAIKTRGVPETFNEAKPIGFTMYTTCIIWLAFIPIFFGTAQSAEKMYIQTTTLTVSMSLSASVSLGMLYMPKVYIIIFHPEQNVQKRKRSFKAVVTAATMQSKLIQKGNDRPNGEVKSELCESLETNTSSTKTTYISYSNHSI
row,Compound,z-score
1,COc1cc(CC(=O)OCC(=O)Nc2ccc3c(c2)OCCO3)cc(OC)c1OC,-0.207
2,O=c1[nH][nH]c(C(F)(F)F)c1C=Nc1ccccc1,0.126
3,CCn1cc(C(=O)NCc2ccco2)c2cc(OC)c(OC)cc2c1=O,0.183
4,CCOC(=O)c1cc2occc2n1CC(=O)NCCOC,0.141
5,O=C(Nc1nc2ccc(Cl)cc2s1)C1CCCO1 (centres undefined),-0.864
6,CCN(CC)S(=O)(=O)c1ccc2nnn(OCC(=O)Nc3cccc(C#N)c3)c2c1,-0.793
7,Cc1cc(C)nc(N2CCN(CC(=O)NCc3ccccc3)CC2)n1,-0.195
8,COc1ccc(OCCSc2nnc(-c3ccccc3)n2N)cc1,0.144
9,CCN(C(=O)Cc1cccs1)c1nnc(-c2cc(OC)c(OC)c(OC)c2)s1,-0.44
10,CC(=O)O/N=C(/c1nonc1N)N1CCN(c2ccc([N+](=O)[O-])cc2Cl)CC1,-0.222
11,COc1ccc(N(CC(=O)Nc2cc(C)ccc2OC)S(=O)(=O)c2c(C)noc2C)cc1,-0.432
12,Cn1c(SCc2n[nH]c(=S)o2)nnc1-c1ccccc1,-0.0285
13,CC1(C)Cc2cccc(OCC(O)CNCc3ccccn3)c2O1 (centres undefined),0.739
14,CC(C)NC(=O)CSc1nnc(COc2ccccc2Cl)o1,-0.386
15,CCC(=O)c1ccc(OCC(O)CN2CCOCC2)cc1 (centres undefined),0.0417
16,O=C(NCCSCc1ccccc1)c1ccc(F)cc1,0.0217
17,O=C(NCc1ccc2c(c1)OCO2)c1cccnc1,-0.202
18,COC(=O)/C(=C1\Oc2ccc(C(C)(C)C)cc2S1)C(F)(F)F,0.161
19,O=C(Cc1cccs1)NCc1ccc2c(c1)OCO2,-0.488
20,Cc1ccc(Cn2c(CN(C)Cc3ccccc3)nc3c2c(=O)n(C)c(=O)n3C)cc1,-1.01
21,O=c1c2ccccc2nc2n1CCCCC2,0.0912
22,CC(=O)OC1COC(n2ccc3ccccc32)C(OC(C)=O)C1OC(C)=O (centres undefined),-0.05
23,Cc1nn(Cc2c(F)c(F)c(F)c(F)c2F)c(C)c1NC(=O)c1ccc(COc2cc(Cl)ccc2Cl)cc1,-0.32
24,CCNC(=S)Nc1cc(C)ccn1,0.1
25,c1ccc(Cc2cc(-c3ccccc3)on2)cc1,0.0389
26,O=C(COC(=O)Cn1c(C(F)(F)F)nc2ccccc21)Nc1ccc2c(c1)OCCO2,-0.513
27,CCn1c(=N)n(CC(O)c2ccco2)c2ccccc21 (centres undefined),0.425

row,Compound,z-score
1,C=CC[n+]1c(-c2ccc(OC)cc2)csc1NNC(=O)Nc1ccccc1,0.444
2,O=C(Nc1ccccc1Cl)c1ccc(COc2ccc3c(c2)CCC3)cc1,0.941
3,CCN(Cc1nc2ccccc2c(=O)[nH]1)Cc1nc2cc(OC)c(OC)cc2c(=O)[nH]1,-0.0675
4,CSc1ccccc1N=CC1=C(O)CC(C)(C)CC1=O,-0.437
5,CCCN1CCCc2cc(CN(CCCN3CCOCC3)C(=O)Nc3ccc(OCC)cc3)ccc21,0.000776
6,Cn1c(=O)c2[nH]c(-c3ccccc3)c(O)c2n(C)c1=O,-1.4
7,N#Cc1c(NC(=O)c2ccccc2)sc2c1CCC2,0.423
8,Cc1cccc(Cn2nnc3c2C(=O)c2ccccc2C3=O)c1,-0.21
9,COC(=O)c1nc(N)sc1-c1ccc(OC)cc1,-0.163
10,CCCNC(=O)Cn1nc(C(F)(F)F)c2c1CCCC2,0.279
11,COc1ccc(CCNC(=O)Cn2cnc3c(cnn3-c3ccccc3Cl)c2=O)cc1OC,-0.325
12,CC(=O)c1cc2c(=O)c3cc(C)ccc3oc2nc1C,0.794
13,Clc1ccc(OCCn2c(-c3ccco3)nc3ccccc32)cc1,-0.643
14,Cc1c(C(=O)NC2CCCc3ccccc32)oc2ccc(S(=O)(=O)N3CCCC3)cc12 (centres undefined),0.0835
15,COC(=O)c1c(NC(=O)CN2C(=O)NC3(CCC(C(C)(C)C)CC3)C2=O)sc2c1CCCCC2 (centres undefined),-0.472
16,Cc1cc(NS(=O)(=O)c2ccc(NC(=O)C(c3ccccc3)c3ccccc3)cc2)no1,-0.79
17,O=C(C(=O)N1CCCc2ccccc21)c1c[nH]c2ccccc12,0.104
18,COC(=O)C1=C(O)CSC1=Nc1ccccc1,0.0252
19,Clc1ccc(CSc2nnc(/C=C/c3ccccc3)o2)cc1,-0.0393
20,Cc1nnc(SCC(=O)Nc2cc(C(F)(F)F)ccc2N2CCOCC2)o1,-0.221
21,C/C(CC(=O)Nc1ccc(OCc2ccccc2)cc1)=N\NC(=O)C(=O)Nc1cccc(C)c1,0.474
22,COc1ccc(-n2c(Cc3ccccc3)nnc2SCc2ccc([N+](=O)[O-])cc2)cc1,0.392
23,COc1ccc(C(=O)c2cnc(C(C)C)n2C)cc1,-0.0255
24,Cc1ccc(S(=O)(=O)N(C)c2ccc(C(=O)N3CCN(Cc4ccc5c(c4)OCO5)CC3)cc2)cc1,-0.38
25,COc1ccc(C(=O)c2coc3ccc(O)c(CN4CCCC4)c23)cc1,-0.315
26,COC(=O)c1nn(-c2ccc(OC)cc2)c(=O)cc1Oc1ccccc1,-0.0614
27,Cc1c(/C=N/NC(=O)c2cc(=O)[nH]c(=O)[nH]2)c2ccccn2c1C(=O)c1ccccc1,-0.247
